Source: PMC4336329 (PLoS ONE, 2015)
Out of some 310,000 compounds screened, about 14,000 (4.5%) showed an effect of 50% or more. Effects have a minus sign here. This is one part of the list. Where a SMILES comes first, the peptide text is derived from it. The star is where a group is joined. Boc = CC(C)(C)OC(=O)*

What follows are compounds tested against human ether-à-go-go-related gene (hERG) potassium channel (human, UniProt Q12809) (assay: primary screen, population patch clamp on CHO cells stably expressing hERG).
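Also: peak tail current of the secondary pulse compared with the same well before compound.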

Chain of human ether-à-go-go-related gene (hERG) potassium channel (Q12809 whole entry, looked up): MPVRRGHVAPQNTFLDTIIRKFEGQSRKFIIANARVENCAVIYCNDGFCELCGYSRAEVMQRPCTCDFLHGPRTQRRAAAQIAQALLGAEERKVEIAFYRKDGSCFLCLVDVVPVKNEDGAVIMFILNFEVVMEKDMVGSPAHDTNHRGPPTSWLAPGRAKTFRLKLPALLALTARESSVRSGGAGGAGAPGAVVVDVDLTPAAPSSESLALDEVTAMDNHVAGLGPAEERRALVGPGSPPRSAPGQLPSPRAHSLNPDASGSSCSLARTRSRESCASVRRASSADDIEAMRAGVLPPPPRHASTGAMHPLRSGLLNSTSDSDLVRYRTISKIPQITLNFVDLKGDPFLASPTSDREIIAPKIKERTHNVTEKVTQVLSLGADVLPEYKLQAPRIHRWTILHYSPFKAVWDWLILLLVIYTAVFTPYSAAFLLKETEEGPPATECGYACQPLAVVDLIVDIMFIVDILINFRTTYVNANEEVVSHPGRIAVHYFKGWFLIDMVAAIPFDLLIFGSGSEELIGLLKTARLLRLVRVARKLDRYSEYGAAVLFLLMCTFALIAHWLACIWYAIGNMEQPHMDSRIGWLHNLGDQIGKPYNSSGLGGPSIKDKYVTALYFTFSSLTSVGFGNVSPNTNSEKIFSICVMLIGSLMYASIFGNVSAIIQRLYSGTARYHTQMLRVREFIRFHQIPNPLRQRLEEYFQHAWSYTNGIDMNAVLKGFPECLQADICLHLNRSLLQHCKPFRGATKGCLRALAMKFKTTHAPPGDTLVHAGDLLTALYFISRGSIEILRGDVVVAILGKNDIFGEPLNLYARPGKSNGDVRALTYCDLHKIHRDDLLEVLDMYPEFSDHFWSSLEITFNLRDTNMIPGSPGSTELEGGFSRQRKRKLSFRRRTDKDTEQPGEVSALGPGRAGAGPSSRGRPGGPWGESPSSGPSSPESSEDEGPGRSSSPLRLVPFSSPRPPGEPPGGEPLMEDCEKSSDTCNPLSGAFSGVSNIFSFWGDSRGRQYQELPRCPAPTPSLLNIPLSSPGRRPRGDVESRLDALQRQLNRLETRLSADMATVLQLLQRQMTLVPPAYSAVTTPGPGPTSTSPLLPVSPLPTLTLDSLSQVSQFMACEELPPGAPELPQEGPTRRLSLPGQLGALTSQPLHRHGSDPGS

Compound | hERG current change (%, negative = inhibition) at 10uM
CC(=O)c1c(C)nc(-c2ccccc2)nc1NC(=O)Cc1ccccc1 | 9.04%
CCCc1nc2ccccc2c(=O)n1-c1c(C)n(C)n(-c2ccccc2)c1=O | 8.6%
CC[C@]1(c2ccccc2C)ON(c2ccccc2C(F)(F)F)C1=O | 17.1%
O=C(O)C(=O)O.O=C(c1ccccc1)N1CCN(Cc2ccccc2C(F)(F)F)CC1 | -19.2%
CCN(CC)CCCNC(=O)c1cc2c(=O)[nH]c3ccc(C)cc3c2s1 | 8.67%
CC1CN(CCCCN2C(=O)c3ccccc3C2=O)CC(C)O1.O=C(O)C(=O)O (stereo not shown) | 4.66%
CC(C)CC(NC(=O)C1CCC(=O)N1C(=O)OCc1ccccc1)C(=O)NC(Cc1ccccc1)C(N)=O (stereo not shown) | 19.8%
Cc1nc(SCc2cccc(F)c2)[nH]c(=O)c1C#N | -11.5%
COc1cc2nc(CN3C(=O)c4ccccc4C3=O)oc(=O)c2cc1OC | 17.9%
CCC(C)C(NC(=O)OC(C)(C)C)C(=O)NC(C)C(N)=O (stereo not drawn) (Boc-Ile-Ala-NH2; configuration not given here) | 16.1%
CCOc1ccccc1NC(=O)c1ccc(S(=O)(=O)N2CCCCC2)cc1 | 6.41%
N/C(Cn1nnc(-c2ccccc2)n1)=N\O | -2.1%
COC(=O)c1sccc1NC(=S)NCc1ccc(Cl)cc1 | 9.11%
COc1ccccc1CNC(=O)C1CCN(c2ncnc3c2nc2n3CCCCC2)CC1 | 6.69%
COc1ccc(C2Cc3ccccc3C(=O)O2)cc1 (stereo not shown) | -11.2%
CCCCNC(=O)[C@]1(C)CCC[C@@]2(C)C3CC[C@@]4(C)C[C@]3(CCC21)CC4=O (stereo partly shown) | -5.36%
Cc1ccc(C(OC(=O)c2ccco2)C(=O)NC(C)(C)C)cc1 (stereo not shown) | 10.8%
COc1ccc(N2CC(C(=O)Nc3nc4ccc(OC)cc4s3)CC2=O)cc1 (stereo not shown) | -58.8%
Cc1ccc(S(=O)(=O)N2CCOCC2)cc1NC(=O)CSc1cccc[n+]1[O-] | -12.6%
Cc1cccc(C)c1NC(=O)c1cccc(COc2cc(Cl)ccc2Cl)c1 | 1.43%
COc1ccc(OCCCC(=O)OC(C)C(=O)Nc2ccc(S(N)(=O)=O)cc2)cc1 (stereo not shown) | -9.14%
CCOC(=O)Cc1csc(NC(=O)c2ccc(Cl)nc2)n1 | 9.35%

Compound | hERG current change (%, negative = inhibition) at 10uM
CCC(=O)Nc1ccc(-c2nnc(-c3ccccc3)o2)cc1 | 2.6%
COCCOC(=O)c1c(C)n(C)c2ccc(OC(=O)c3ccccc3F)cc12 | 3.15%
CCN(CC)C(=O)C(=O)N/N=C/c1cccs1 | 14.7%
O=C(NNC(=S)Nc1ccccc1)c1cc(-c2cccnc2)nc2ccccc12 | 26.4%
O=C(N/N=C/c1cc2c(cc1[N+](=O)[O-])OCO2)c1cccnc1 | -1.62%
O=C(Nc1ccnn1C1CCN(C(=O)c2ccccc2C(F)(F)F)CC1)C1CC1 | 29.3%
CC(=O)Oc1ccc2oc(/C=C/N(C)C)c([N+](=O)[O-])c2c1 | 11.9%
Cn1c(N/N=C\c2cccc(O)c2)cc(=O)n(C)c1=O | 1.59%
O=C(O)c1ccc(N2CCOCC2)c(N2C(=O)C3C4C=CC(C4)C3C2=O)c1 (stereo not shown) | 17.2%
CN(C)CC(=O)Nc1cc(C(F)(F)F)ccc1Cl | 11.2%
CC(=O)Oc1cccc(N2C(=O)CC(Nc3ccc(N4CCOCC4)cc3)C2=O)c1 (stereo not shown) | -1.67%
COc1cccc(S(=O)(=O)NCC(=O)N2CCCC2)c1 | 19.9%
CSc1ccccc1NC(=O)CN(C)CC(=O)Nc1cccc(Br)c1 | -12.3%
CN(Cc1ccccc1)c1nc2c(c(=O)n(C)c(=O)n2C)n1CCCc1ccccc1 | -20.7%
Cc1cccn2c(=O)c(/C=C3\SC(=S)N(CC(C)C)C3=O)c(NCCCOC(C)C)nc12 | 0.671%
COC(=O)CCNC(=O)Cn1cnc2sc3c(c2c1=O)CCCC3 | 9.21%
CSCCC(NC(=O)c1ccco1)C(=O)NCC(c1ccccc1)N(C)C (stereo not shown) | -9.02%
Cn1c(Cc2ccccc2)nnc1SCC(=O)Nc1ccc(N2CCOCC2)cc1 | 3%
COc1ccccc1CNC(=O)C(NS(=O)(=O)c1cccc2nsnc12)C(C)C (stereo not shown) | 0.845%
CC(=O)Nc1ccc(NC(=O)/C=C/c2ccccc2)cc1 | -13.1%
CCOc1ccc2[nH]c(=O)c(CN(CCc3ccccc3)C(=O)c3cnccn3)cc2c1 | -1.06%
Cc1ccc(OCC(=O)Nc2ccc(NC(=O)c3ccco3)cc2)c(C)c1 | 11%

Compound | hERG current change (%, negative = inhibition) at 10uM
COc1cc(OC)cc(C(=O)NCC2CCCN(Cc3cccc(C(C)=O)c3)C2)c1 (stereo not shown) | -25.3%
Cc1cc(Nc2ccc(C)c(Br)c2)n2nc(C)nc2n1 | -10.2%
COc1ccc(OC)c(C2=NOC(C(=O)Nc3cccc(C(C)=O)c3)C2)c1 (stereo not shown) | -12.4%
COCCc1ncc(CN2CCCC(C(=O)Nc3cccc(-c4cccc(C)c4)c3)C2)cn1 (stereo not shown) | -56.6%
O=S(=O)(Nc1ccccc1OC(F)F)c1ccc(S(=O)(=O)N2CCCC2)cc1 | -16.1%
CCN(CC)C(=O)N1CCN(C(=O)N(CC)CC)CC1 | 8.36%
COc1ccc(-c2[nH]n(-c3ccc([N+](=O)[O-])cc3)c(=O)c2C=NCC2CCCO2)cc1 (stereo not shown) | 21.1%
O=C(CCc1ccccc1)Nc1ccc2c(c1)OCCO2 | -9.79%
COC1CCN(C(=O)c2ccc(OC3CCN(CCc4ccccc4)CC3)cc2)CC1 | -29.8%
CC12CC3CC(C)(C1)CC(C(=O)NCc1ccco1)(C3)C2 | -9.42%
CC(O)c1c(-c2ccccc2)nn(C)c1Cl (stereo not shown) | 22.9%
COc1ccc(Cl)cc1NC(=O)CNc1ccccc1F | 15.5%
CCOC(=O)C1(CC2CC2)CCN(Cc2ccc3cccc(F)c3n2)CC1 | -48.3%
CC(C)c1c(C(=O)N/N=C/c2cccs2)nnn1-c1nonc1N | 27.6%
Cc1nnc(SCc2nc3ccccc3s2)n1N | 5.8%
Cc1sc2nc(CSC(C)C(=O)Nc3ccc(Cl)cn3)[nH]c(=O)c2c1C (stereo not shown) | 8.94%
Oc1ccc2ccccc2c1C=Nc1ccccc1 | 3.96%
CCCCNc1nc2ccccc2nc1Cl | 12.2%
CC(C)OCCCNC(=S)NNC(=O)c1ccc(Cl)c(Cl)c1 | 1.09%
CN(c1ccccc1)S(=O)(=O)c1ccc(Cl)c(C(=O)Nc2nn[nH]n2)c1 | 46.8%
O=C(Nc1nnc(C2CC2)s1)c1ccc(S(=O)(=O)c2ccccc2)cc1 | 16.3%
CCOc1cc(C(=S)N2CCOCC2)ccc1OS(=O)(=O)c1ccccc1 | -10%

Compound | hERG current change (%, negative = inhibition) at 10uM
COc1cccc(NC(=O)COC(=O)C2CC3CCCC(C2)C3=O)c1 (stereo not shown) | -8.43%
FC(F)(F)c1cc(-c2ccc3c(c2)OCO3)nc(NCc2ccco2)n1 | -6.85%
CCc1nnc(NC(=O)C2CCCN2S(=O)(=O)c2ccc(F)cc2)s1 (stereo not shown) | -7.69%
CCCCC(CC)Cn1c(N)c(C#N)c2nc3ccccc3nc21 (stereo not shown) | 2.28%
Cc1cc(C)c(C)c(S(=O)(=O)N2CCCCC2C(=O)O)c1C (stereo not shown) | 11.4%
Cc1ccc(Cc2cnc(N)s2)o1 | 4.19%
C=C(C)COc1ccc(-c2[nH]ncc2-c2ccccc2)c(O)c1 | 19%
Cc1ccsc1/C=N/N1CCOCC1 | 0.295%
CN(CCOc1ccccc1)C(=S)Nc1ccc(OC(F)F)cc1 | -55.2%
Cc1cc(C)n(-c2nc3ccccc3nc2N2CCN(S(=O)(=O)c3cccc(C#N)c3)CC2)n1 | -11.1%
CCN(CC)C(=O)Cn1c(=O)n(Cc2ccccc2Cl)c2c1c(=O)n(C)c(=O)n2C | 2.2%
Cc1cc(C(=O)CSc2nnnn2C)c(C)n1C1CC1 | -1.55%
Cc1ccc(N2C(=O)N(CC(=O)Nc3cc(Cl)ccc3C)C(=O)C2C)cc1 (stereo not shown) | -1.75%
COC(=O)N1C(=O)[C@@](c2ccccc2)(C(C)C)N1C(=O)OC | 19.3%
CCN(CC)CCN1C(=O)C(=O)/C(=C(/O)c2ccc(S(=O)(=O)N3CCOCC3)cc2)C1c1ccc(C(C)C)cc1 (stereo not shown) | 11.9%
CN(C)CCNc1ncnc2ccccc12.Cl | 7.66%
O=C(NNC(=O)c1cccs1)c1ccc(Cl)c([N+](=O)[O-])c1 | -6.26%
Cn1cccc1CC(=O)N/N=C/c1ccc(Cl)c([N+](=O)[O-])c1 | -16.5%
CCSC1=N/C(=C\C=C2/Oc3ccccc3N2CC)C(=O)S1 | -3.2%
O=C(Nc1cccc(Br)c1)C1CCCC1 | 13.3%
CSCCC(NC(=O)c1cccc(C)c1)C(=O)OCC(=O)NC(=O)c1cccn1C (stereo not shown) | -0.791%
Cc1ccc(-c2nn(CC(=O)NN3CCOCC3)c(=O)c3ccccc23)cc1 | -1.66%
